{
  "source": "PubChem BioAssay AID1030",
  "about": "(National Center for Advancing Translational Sciences (NCATS), 2008)",
  "note": "“And” between values parts separate entries of the source, which are not always exact repeats. Identical values can stand only once. The whole screen tested about 220,000 compounds, of which about 16,000 (7.3%) were called active. Inconclusive results, whose numbers are uncertain, are shown with a selection of clear calls. Calls come from the whole dose curve; as a rule, active = well fitted inhibition curve with a large enough effect (not every such curve was filed as active); inconclusive = small, poorly fitted or top-dose-only effect, or another doubt; inactive = no such curve, though single readings can be large or run the other way. No potency is given beside an inconclusive call; the fits are too rough. A structure can be active in one record and inactive in another. Potency is the fitted concentration of half-maximal effect; tags give direction and shape of the fitted curve.",
  "data": [
    {"biological_target": "Aldehyde dehydrogenase 1A1 (Homo sapiens) (UniProt P00352)", "sequence (P00352 whole entry, looked up)": "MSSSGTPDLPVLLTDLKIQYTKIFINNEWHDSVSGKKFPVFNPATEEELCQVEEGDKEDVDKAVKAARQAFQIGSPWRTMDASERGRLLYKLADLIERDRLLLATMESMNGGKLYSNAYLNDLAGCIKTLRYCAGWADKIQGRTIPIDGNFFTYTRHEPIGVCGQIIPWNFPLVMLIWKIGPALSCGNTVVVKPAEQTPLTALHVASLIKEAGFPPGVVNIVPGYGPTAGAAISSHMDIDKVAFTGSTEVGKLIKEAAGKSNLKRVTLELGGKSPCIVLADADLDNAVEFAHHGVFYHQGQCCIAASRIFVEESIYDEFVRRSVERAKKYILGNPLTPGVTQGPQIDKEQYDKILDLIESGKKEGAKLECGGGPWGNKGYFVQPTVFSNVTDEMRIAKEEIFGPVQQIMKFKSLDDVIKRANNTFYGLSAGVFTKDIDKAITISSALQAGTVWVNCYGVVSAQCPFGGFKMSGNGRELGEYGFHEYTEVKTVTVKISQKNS", "assay": "qHTS Assay for Inhibitors of Aldehyde Dehydrogenase 1 (ALDH1A1);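 for activity, negative = inhibition: plate controls were no enzyme wells and a reference inhibitor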", "conditions": "Purified ALDH1A1, NADH fluorescence, propionaldehyde substrate; series mostly up to 75.3 µM", "values": [
      {"smiles": "COc1ccc(CN2C(=O)NC(=O)/C(=C\\c3cccc(OC)c3OC)C2=O)cc1", "Potency": "inconclusive [inhibitor, partial curve]"},
      {"smiles": "O=C(C(=O)N1CCOCC1)c1cn(CCCOc2ccccc2)c2ccccc12", "Potency": "inconclusive [inhibitor, single point]"},
      {"smiles": "N#CC(C#N)=Cc1ccc(N2CCCC2)cc1", "Potency": "active: 10 µM"},
      {"smiles": "CNCCc1c[nH]c2ccccc12", "Potency": "active: 17.8 µM"},
      {"smiles": "O=[N+]([O-])c1ccc2nc(N3CCNCC3)ccc2c1", "Potency": "active: 25.1 µM"},
      {"smiles": "C=CCN1C(=O)NC(=O)/C(=C/c2ccoc2)C1=O", "Potency": "inconclusive [inhibitor, partial curve]"},
      {"smiles": "N[C@@]1(C(=O)O)CC[C@H](C(=O)O)C1", "Potency": "inactive"},
      {"smiles": "CCOC(=O)C(O)(c1ccc(NC(=S)NC(=O)c2ccc(Cl)cc2Cl)cc1)C(F)(F)F", "note": "(centres undefined)", "Potency": "active: 8.91 µM"},
      {"smiles": "CCn1c(P(C)(=O)O)nc2ccccc21", "Potency": "inactive"},
      {"smiles": "CCCCC[C@@H](/C=C/C=C\\CCCCCCCC(=O)O)OO", "Potency": "inactive"},
      {"smiles": "CN1Cc2ccccc2[C@@H]2c3cccc4[nH]cc(c34)C[C@H]21", "Potency": "inactive and active: 15.8 µM"},
      {"smiles": "CC1CCC(NC(=O)c2cc3c(=O)n(C)c4ccccc4c3n2C)CC1", "note": "(centres undefined)", "Potency": "inconclusive [inhibitor, single point]"},
      {"smiles": "Cc1ccccc1OCCCn1cc(C(=O)C(=O)N2CCOCC2)c2ccccc21", "Potency": "inactive"},
      {"smiles": "O=C1NC(=O)N(CCC2=CCCCC2)C(=O)/C1=C/c1ccc(O)cc1", "Potency": "active: 0.794 µM"},
      {"smiles": "O=C(NC(C(Cl)Cl)N1CCOCC1)c1ccccc1", "note": "(centres undefined)", "Potency": "inconclusive [inhibitor, partial curve, poor fit]"},
      {"smiles": "CN(C)CCCNCC(=O)Nc1ccc(Cl)cc1C(=O)c1ccccc1", "Potency": "active: 2.82 µM"},
      {"smiles": "COC1=CC2C3Cc4ccc(OC)c(O)c4[C@]2(CCN3C)CC1=O", "note": "(some centres undefined)", "Potency": "inactive"},
      {"smiles": "Cc1cc(S(=O)(=O)NCC(C)C)ccc1OCC(=O)N1CCN(Cc2ccccc2)CC1", "Potency": "active: 17.8 µM"},
      {"smiles": "ClC=CCl", "Potency": "inactive"},
      {"smiles": "Cc1cc(C=C2C(=O)NC(=O)NC2=O)c(C)n1-c1ccncc1", "Potency": "active: 14.1 µM"},
      {"smiles": "Nc1c(C(=O)NCCc2ccccc2)c2nc3ccccc3nc2n1CCN1CCOCC1", "Potency": "inconclusive [inhibitor, partial curve]"},
      {"smiles": "CCC(=NC1CC1)c1c(O)n(C2CCCCC2)c(=O)[nH]c1=O", "Potency": "inconclusive [inhibitor, single point]"},
      {"smiles": "Nc1ccccc1C(=O)OCC(=O)N1CCc2ccccc21", "Potency": "inconclusive [inhibitor, partial curve]"},
      {"smiles": "CCCc1[nH]nc2c1C(CCC)C(C#N)=C(N)O2", "note": "(centres undefined)", "Potency": "inconclusive [inhibitor, single point]"},
      {"smiles": "Cn1c(O)c(C=NC2C(=O)C3(C)CCC2C3(C)C)c(=O)n(C)c1=O", "note": "(centres undefined)", "Potency": "inconclusive [inhibitor, single point]"},
      {"smiles": "CCc1sc(C(=O)N2CCC3(CC2)OCCO3)cc1Br", "Potency": "inconclusive [inhibitor, single point]"},
      {"smiles": "CCOc1ccccc1N1C(=O)NC(=O)/C(=C/c2ccc3c4c(cccc24)CC3)C1=O", "Potency": "inconclusive [inhibitor, partial curve]"},
      {"smiles": "C=CCc1cc(C=C2C(=O)NC(=O)NC2=O)cc(OC)c1OCc1ccc(C(=O)O)cc1", "Potency": "active: 11.2 µM"},
      {"smiles": "CN(C)C1C(=O)C(C(N)=O)=C(O)[C@@]2(O)C(=O)C3=C(O)c4c(O)cccc4[C@@](C)(O)C3[C@H](O)C12", "note": "(some centres undefined)", "Potency": "active: 7.08 µM"},
      {"smiles": "CC(C(=O)Nc1ccc(Br)cc1C(=O)c1ccccc1)N1CCOCC1", "note": "(centres undefined)", "Potency": "inconclusive [inhibitor, single point]"},
      {"smiles": "C=CCN1C(=O)NC(=O)/C(=C/c2ccc(OC)c(CSc3ccccn3)c2)C1=O", "Potency": "active: 12.6 µM"},
      {"smiles": "Cc1nonc1OCCNc1ccc([N+](=O)[O-])c2cccnc12", "Potency": "inconclusive [inhibitor, single point]"},
      {"smiles": "O=C(c1cccn2c(=O)c3cc(Br)ccc3nc12)N1CCC2(CC1)OCCO2", "Potency": "inconclusive [inhibitor, partial curve]"},
      {"smiles": "Cc1ccc(-n2nc(C)cc2NC(=O)COc2cc(C)cc3oc(=O)c4c(c23)CCC4)cc1", "Potency": "inconclusive [inhibitor, partial curve]"},
      {"smiles": "Cc1cnn(-c2cc(Oc3ccccc3)ncn2)c1", "Potency": "active: 22.4 µM"},
      {"smiles": "O=c1[nH]c(=S)[nH]c(O)c1N=Nc1cc2c(cc1[N+](=O)[O-])OCO2", "Potency": "inconclusive [inhibitor, partial curve]"},
      {"smiles": "Nc1ccccc1C(=O)O", "Potency": "inconclusive [inhibitor, partial curve]"},
      {"smiles": "O=[N+]([O-])c1ccc(N2CCNCC2)c2ncccc12", "Potency": "inactive"},
      {"smiles": "CCCCCn1c(N)c(C(=O)NCc2cccs2)c2nc3ccccc3nc21", "Potency": "inconclusive [inhibitor, partial curve]"},
      {"smiles": "Nc1c(C(=O)OC2CCCCC2)c2nc3ccccc3nc2n1CC1CCCO1", "note": "(centres undefined)", "Potency": "inconclusive [inhibitor, partial curve]"},
      {"smiles": "NC1=NC([S][Hg][c]2ccc(N)cc2)c2ncn([C@@H]3O[C@H](CO)[C@@H](O)[C@@H]3O)c2N1", "note": "(some centres undefined)", "Potency": "active: 0.1 µM"},
      {"smiles": "CCC1(c2ccccc2)C(=O)NC(=O)N(C)C1=O", "note": "(centres undefined)", "Potency": "inactive"},
      {"smiles": "CCCC(C)C1(CC)C(=O)N=C(S)NC1=O", "note": "(centres undefined)", "Potency": "inactive"},
      {"smiles": "FC(F)(F)c1cccc(CN2CCCCCC2)c1", "Potency": "inconclusive [inhibitor, partial curve]"},
      {"smiles": "O=NN(CCCl)C(=O)NCCCl", "Potency": "active: 3.16 µM"},
      {"smiles": "O=c1[nH]c(=O)n(Cc2ccc(F)cc2)c(O)c1C=Nc1ccc(Cl)cc1", "Potency": "inconclusive [inhibitor, single point]"},
      {"smiles": "C=CCOC(=O)c1ccccc1N", "Potency": "inconclusive [inhibitor, single point]"},
      {"smiles": "Cc1ccc(NC(=[OH+])c2cc3ccccc3cc2O)c(C)c1.Cc1ccc(NC(=[OH+])c2cc3ccccc3cc2O)c(C)c1.[Ni]", "activity, negative = inhibition": "inactive: -19.6% [at 13.5 µM]"},
      {"smiles": "CC(C)N(C(=O)CCl)c1ccccc1", "Potency": "active: 0.0282 µM"}
    ]}
  ]
}
